# Measured values as given in PubChem BioAssay AID588591 (National Center for Advancing Translational Sciences (NCATS), 2011).
# The whole screen tested about 390,000 compounds, of which about 4,700 (1.2%) were called active. This list was built around the results that the source calls inconclusive (neither active nor inactive); the mix of calls is not that of the screen. The call rests on the fitted dose curve; in most records, active means well fitted inhibition curve with a large enough effect; inconclusive means small, poorly fitted or top-dose-only effect, or another doubt; inactive means no such curve, though single readings can be large or run the other way. A potency beside an inconclusive call is a rough fit, not a confirmed value.
# Target: DNA polymerase eta (Homo sapiens) (UniProt Q9Y253)
# Experiment: qHTS for Inhibitors of Polymerase Eta
# Conditions: recombinant Pol eta, fluorescent DNA replication assay; series mostly up to 114 µM
# How it was run: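 Pol eta (10 nM) was preincubated with compounds for 15 min at room temperature, after which fluorescent replication substrate (50 nM final) was added to start the reaction. Fluorescence was read kinetically at 0 and 10 min.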
# Potency means the concentration at half of the fitted maximal effect; tags describe the fitted curve by direction and shape.
# Sequence of UniProt Q9Y253 (Q9Y253 whole entry, looked up): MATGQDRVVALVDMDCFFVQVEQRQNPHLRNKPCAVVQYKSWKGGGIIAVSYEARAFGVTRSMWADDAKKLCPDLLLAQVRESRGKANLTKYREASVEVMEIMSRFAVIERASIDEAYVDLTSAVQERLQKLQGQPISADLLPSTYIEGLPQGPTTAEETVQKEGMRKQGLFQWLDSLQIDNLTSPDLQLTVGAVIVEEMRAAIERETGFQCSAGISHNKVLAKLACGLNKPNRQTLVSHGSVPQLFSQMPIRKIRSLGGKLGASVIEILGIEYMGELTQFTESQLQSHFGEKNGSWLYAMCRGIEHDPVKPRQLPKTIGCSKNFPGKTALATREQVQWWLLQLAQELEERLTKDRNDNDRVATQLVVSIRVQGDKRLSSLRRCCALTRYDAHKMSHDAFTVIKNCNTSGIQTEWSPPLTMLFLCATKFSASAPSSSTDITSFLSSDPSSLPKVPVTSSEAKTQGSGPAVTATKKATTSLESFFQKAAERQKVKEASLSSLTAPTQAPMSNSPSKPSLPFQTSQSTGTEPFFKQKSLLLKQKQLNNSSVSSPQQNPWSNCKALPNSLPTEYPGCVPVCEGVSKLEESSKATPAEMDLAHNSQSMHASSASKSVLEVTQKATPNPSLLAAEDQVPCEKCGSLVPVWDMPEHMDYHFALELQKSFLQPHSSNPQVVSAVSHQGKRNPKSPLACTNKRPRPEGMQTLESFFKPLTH
row,SMILES,Potency
1,O=C(Nc1ccc(S(=O)(=O)Nc2ncccn2)cc1)C1=COCCO1,"inconclusive: 11.2 µM [inhibitor, partial curve, poor fit]"
2,O=C(c1ccco1)N1CCN(C(=O)c2cc(-c3ccccc3)nc3ccccc23)CC1,inactive
3,C[C@H]1CN([C@@H](C)CO)C(=O)Cc2cc(NC(=O)CCC(F)(F)F)ccc2O[C@H]1CN(C)Cc1ccc(-c2ccccc2)cc1,"inconclusive: 56.2 µM [inhibitor, partial curve]"
4,COc1ccccc1/C=C(/CC(=O)NCc1ccc(F)cc1)c1nc2ccccc2s1,"inconclusive: 10 µM [inhibitor, partial curve, poor fit]"
5,CCC1(CC)NC(=O)N(CC(=O)OCC(=O)Nc2ncc(Cl)cc2Cl)C1=O,"inconclusive: 25.1 µM [inhibitor, single point]"
6,CCN(CC)c1ccc(C=C2SC(=S)NC2=O)cc1,"inconclusive: 15.8 µM [inhibitor, full curve, poor fit]"
7,CCc1ccc(-c2nc3cc(NC(=O)c4cc5ccccc5cc4OC)ccc3o2)cc1,"inconclusive: 100 µM [inhibitor, partial curve, poor fit]"
8,COc1cccc(NC(=O)CN(C)C(=O)c2cc(-c3ccco3)nc3ccccc23)c1,"inconclusive: 56.2 µM [inhibitor, partial curve, poor fit]"
9,O=C1NC(=S)S/C1=C\c1coc2ccc(O)cc2c1=O,active: 50.1 µM
10,O=c1[nH]c2cc3c(cc2cc1CN(Cc1cccnc1)Cc1nnnn1Cc1ccco1)OCCO3,"inconclusive: 70.8 µM [inhibitor, partial curve]"
11,c1coc(CNc2nc3nonc3nc2NCc2ccco2)c1,"inconclusive: 35.5 µM [inhibitor, partial curve]"
12,Cc1nc2ccn(Cc3ccccc3)c(=O)c2cc1C(=O)Nc1ccc(F)cc1Cl,inactive
13,Cn1nnnc1SCC1=C(C(=O)O)N2C(=O)C(NC(=O)Cn3nc(C(F)F)cc3C3CC3)C2SC1 (stereo not drawn),active: 20 µM
14,Cc1ccccc1CNC(=O)C1CCC(=O)N(C2CCCCCC2)C1 (stereo not drawn),inactive
15,Cc1ccc(C)n1-c1cccc(NC(=O)c2ccccc2)c1,"inconclusive: 25.1 µM [inhibitor, single point]"
16,COc1ccc(CC(=O)NCc2ccc(Cl)cc2)cc1S(=O)(=O)N1CCOCC1,"inconclusive: 0.0891 µM [inhibitor, full curve, poor fit]"
17,CCC(=O)N1CCc2cc(S(=O)(=O)N3CCN(c4ccccc4F)CC3)ccc21,inactive
18,Cc1ccc(O)c(N=CC2=C(O)c3ccccc3C2=O)c1,active: 17.8 µM
19,COCCCN1CN=C(NS(=O)(=O)c2ccc(NC(C)=O)cc2)NC1,inactive
20,COc1ccc(F)cc1C1=CC(=O)C[C@H](c2ccc3c(c2)OCO3)C1,"inconclusive: 89.1 µM [inhibitor, partial curve, poor fit]"
21,Cc1ccc(-c2cc(N)n(Cc3cccc(Cl)c3)n2)cc1,inactive
22,COc1ccc(/C=N/N=C/c2c[nH]c(=O)c(C#N)c2Nc2ccccc2)cc1,"inconclusive: 12.6 µM [inhibitor, partial curve, poor fit]"
23,C=CC[n+]1c(/C=C2\C=Cc3cc(C)ccc3N2CC)ccc2ccccc21,"inconclusive: 44.7 µM [inhibitor, partial curve]"

row,SMILES,Potency
1,CCCC(=O)NCCc1nc2ccccc2n1Cc1c(F)cccc1Cl,inactive
2,CCOC(=O)c1cc2c(=O)n3cccc(C)c3nc2n(Cc2ccco2)c1=NC(=O)c1ccccc1,"inconclusive: 22.4 µM [inhibitor, single point]"
3,CCOC(=O)CSc1nc2ccc(NC(=O)CSc3nnnn3Cc3ccccc3)cc2s1,"inconclusive: 12.6 µM [inhibitor, partial curve, poor fit]"
4,O=C1C=CC(=O)N1CCCCCCCCCCN1C(=O)C=CC1=O,active: 35.5 µM
5,COc1ccc(C2C3=C(CCCC3=O)NC3=C2C(=O)c2ccccc23)cc1 (stereo not drawn),"inconclusive: 79.4 µM [inhibitor, partial curve, poor fit]"
6,O=C(NCc1ccco1)Nc1ccc2nsnc2c1,"inconclusive: 20 µM [inhibitor, single point]"
7,COc1cc(/C=C2\SC(=Nc3ccc(N4CCOCC4)cc3)N(C)C2=O)ccc1OC(C)C(=O)O (stereo not drawn),"inconclusive: 25.1 µM [inhibitor, partial curve, poor fit]"
8,CN(C(=O)CCCOc1ccc2[nH]c(=O)ccc2c1)C1CCCCC1,inactive
9,Cc1ccc2nc(NCc3ccco3)c(C=NCc3ccco3)c(=O)n2c1,inactive
10,O=C(Cc1ccccc1)Nc1ccc2oc(-c3cccnc3)nc2c1,"inconclusive: 39.8 µM [inhibitor, single point]"
11,Cc1csc(NS(=O)(=O)c2ccc(Cl)cc2)n1,"inconclusive: 100 µM [inhibitor, partial curve, poor fit]"
12,O=[N+]([O-])c1cc([N+](=O)[O-])c2oc(-c3ccccc3)c(Br)c2c1O,active: 25.1 µM
13,COc1cc2c(cc1OC)C1=NC(=O)CN1C(SCc1ccc(C)cc1)=N2,"inconclusive: 25.1 µM [inhibitor, partial curve, poor fit]"
14,NC(=O)c1ccc2c(c1)OCCO2,inactive
15,Cc1[nH]n(-c2ccc([N+](=O)[O-])cc2)c(=O)c1C=NCCc1ccc(S(N)(=O)=O)cc1,"inconclusive: 31.6 µM [inhibitor, full curve]"
16,Cc1ccc(NC(=O)[C@H](C)NC(=O)C2CCN(C(=O)[C@@H](N)CC(C)C)CC2)cc1,inactive
17,CCOC(=O)c1c(C)[nH]c(C2=NNC(=Nc3ccc(OCC)cc3)SC2)c1C,"inconclusive: 20 µM [inhibitor, partial curve, poor fit]"
18,O=C(CCCN1C(=O)/C(=C\c2ccccc2)SC1=S)Nc1ccc(O)cc1C(=O)O,inactive
19,Cc1[nH]c2ccccc2c1C(=O)/C=C/c1ccccc1Cl,"inconclusive: 44.7 µM [inhibitor, partial curve, poor fit]"
20,Cc1noc(C)c1COc1ccc(C(=O)NCC(c2c(F)cccc2Cl)N(C)C)cc1 (stereo not drawn),inactive
21,COc1ccccc1N1CSC2=C(C#N)C(c3ccc(SC)cc3)CC(=O)N2C1 (stereo not drawn),active: 44.7 µM
22,Cn1nnnc1SCc1nnc(-c2ccccc2Br)o1,"inconclusive: 14.1 µM [inhibitor, partial curve, poor fit]"
23,COc1ccc(C2COC(=O)C2=N)c(NC(=O)c2ccccc2)c1 (stereo not drawn),"inconclusive: 10 µM [inhibitor, partial curve]"

row,SMILES,Potency
1,O=[N+]([O-])c1ccc(CS(=O)Cc2ccccc2)cc1 (stereo not drawn),"inconclusive: 44.7 µM [inhibitor, full curve, poor fit]"
2,Cc1ccccc1N1CCN(CCC(=O)Nc2ccc(F)cc2)CC1,inactive
3,COc1cc(/C=C(\CCC(=O)O)c2nc3ccccc3s2)ccc1OCC(=O)Nc1c(Cl)cccc1Cl,"inconclusive: 44.7 µM [inhibitor, partial curve, poor fit]"
4,O=C(OCC(=O)N1N=C(c2ccc(Cl)cc2)CC1c1ccco1)c1cccnc1 (stereo not drawn),active: 28.2 µM
5,NS(=O)(=O)c1ccc(NS(=O)(=O)c2ccc(NC(=S)Nc3ccccc3)cc2)cc1,inactive
6,COc1ccc(-c2ccc(CN3C(C(C)C)C(=O)N(Cc4cn(CCC5OCCO5)nn4)CCS3(=O)=O)cc2)cc1OC (stereo not drawn),"inconclusive: 25.1 µM [inhibitor, partial curve, poor fit]"
7,c1ccc(-c2nn3c(Cn4nnc5ccccc54)nnc3s2)nc1,active: 79.4 µM
8,C=CCSc1nnc2nc3c(nn12)c1cc(C)ccc1n3CC=C,"inconclusive: 15.8 µM [inhibitor, partial curve, poor fit]"
9,CCOc1ccccc1-n1c(SCC(=O)NC(C)(C)C)nnc1-c1ccoc1C,inactive
10,C=CCN1C(=O)c2ccc(C(=O)NCCc3ccc(F)cc3)cc2C1=O,"inconclusive: 100 µM [inhibitor, partial curve, poor fit]"
11,COc1cc2c(cc1NC(=O)CC1SC(N3CCCC3)=NC1=O)oc1ccccc12 (stereo not drawn),"inconclusive: 28.2 µM [inhibitor, partial curve]"
12,Cc1cccc(NC(=O)CSc2nc3c(c(=O)[nH]2)CN(Cc2ccc4c(c2)OCO4)CC3)c1C,"inconclusive: 100 µM [inhibitor, partial curve, poor fit]"
13,CCc1nc(-c2cc(S(=O)(=O)N3CCN(c4ccc(F)cc4)CC3)ccc2OC)no1,inactive
14,CCc1ccc(NC(=O)/C(C#N)=C/c2cc3ccc(C)cc3nc2N2CCOCC2)cc1,"inconclusive: 50.1 µM [inhibitor, partial curve]"
15,CC(=O)Nc1c(O)nc(SCC(=O)Nc2ccc(C(C)=O)cc2)[nH]c1=O,"inconclusive: 89.1 µM [inhibitor, single point]"
16,N#CC1C(=O)NC(=O)C(C#N)C12CCCc1sccc12 (stereo not drawn),inactive
17,C#CCOc1c(/C=C\c2nc(O)c([N+](=O)[O-])c(=O)[nH]2)cc(Br)cc1OC,active: 35.5 µM
18,Cc1cc(N)n(-c2ccc(Oc3ccccc3)c(S(=O)(=O)O)c2)n1,active: 17.8 µM
19,COc1ccc(F)cc1C(=O)C1CCCN(Cc2ccc(Sc3nncn3C)o2)C1 (stereo not drawn),inactive
20,Cc1cccc(-c2nc3sc(C)cc3c(=O)o2)c1,inactive
21,Cc1cc(C)c2cc3c(N)c(C(=O)Nc4c(C)[nH]c(=O)[nH]c4=O)sc3nc2c1,active: 44.7 µM
22,N#C/C(=C\c1ccc(O)c(O)c1)C(=O)N1CCCC1,"inconclusive: 15.8 µM [inhibitor, full curve, poor fit]"
